# Reference: PubChem BioAssay AID1508624 (National Center for Advancing Translational Sciences (NCATS), 2021)
# Hit rate of the full screen: of about 48,000 compounds, about 120 (0.25%) were called active. About 4% were inconclusive and are not listed. Calls follow the shape of the dose curve; as a rule, active = well fitted activation curve with a large enough effect; inconclusive = small, poorly fitted or top-dose-only effect, or another doubt; inactive = no such curve, though single readings can be large or run the other way. Some of the results follow.
# Test: Primary qHTS for Identification of Small Molecule Activators of Huntingtin-Antisense Promoter Activity; also: nearly all actives have a fitted effect of over 55% in size
# Settings: HEK293 HTT-AS promoter firefly luciferase reporter, 24 h; series mostly up to 57.5 µM; activity change, positive = activation: at the top concentration
# How it was run: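 HEK293 luciferase promoter-reporter cells (2,500/well) plated 24 h, then compounds added at up to 57.5 uM final for 24 h at 37 °C. Firefly luminescence by Dual-Glo, normalized to vehicle (0%) and zero RLU (-100%).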
row,SMILES,"activity change, positive = activation"
1,Cc1cccc(C(=O)Nc2ccc(C(=O)OCc3cc(=O)n4c5c(sc4n3)CCCC5)cc2)c1,inactive: -36.9%
2,CC(=O)c1ccc(NC(=O)c2ccc3c(c2)nnn3C2CCCC2)cc1,inactive: 3.88%
3,CCOc1ccc(C(=O)CSc2nc3cc(C(=O)NC4CCCC4)ccc3c(=O)n2CC2CCCO2)cc1 (stereo not given),inactive: 1.39%
4,Cc1ccc(C)c(NC(=O)c2nc(S(C)(=O)=O)ncc2N(Cc2ccc(C(C)(C)C)cc2)Cc2ccco2)c1,inactive: -17.5%
5,CN1C(=O)Cc2cc(S(=O)(=O)N3CCN(c4cccc(C(F)(F)F)c4)CC3)ccc21,inactive: -18.4%
6,CCOc1cc(NC(C)=O)ccc1C(=O)OC,inactive: -6.35%
7,O=c1[nH]cc(F)c(=O)[nH]1,inactive
8,Cc1ccc(C)c(CN2C(=O)c3ccccc3S(=O)c3ccc(C(=O)N(C)Cc4ccccc4)cc32)c1 (stereo not given),inactive: -36.3%
9,Cc1ccc(-n2ncc(C(=O)N3CCC(c4ccccc4)C3)c2C2CCN(C(=O)OC(C)(C)C)CC2)cc1 (stereo not given),inactive: -11.4%
10,CCCCOc1ccc(CNC(=O)c2ccc(NC(=O)N3CCSc4ncccc43)cc2)cc1,inactive: -25.8%
11,O=C(Nc1nc(-c2ccc(Br)cc2)ns1)c1ccccc1F,inactive: -7.38%
12,COC(=O)CCN(C(=O)c1c(C)oc2ncnc(N3CCOCC3)c12)c1ccccc1,inactive: -3.25%
13,Cc1cccc(N2CCN(C(=O)C3CCN(S(=O)(=O)c4ccc5c(c4)oc(=O)n5C)CC3)CC2)c1C,inactive: -42.6%
14,Cc1cc(C)c2oc(C(=O)Nc3ccc(S(=O)(=O)N(C)c4ccccc4)cc3)cc(=O)c2c1,inactive: 7.43%
15,O=c1c2c3c(sc2n(Cc2cc(=O)n4ccccc4n2)c(=O)n1-c1ccc(Cl)cc1)CCC3,inactive: 0.459%
16,O=c1ncn2nc(Sc3ccc(F)cc3F)ccc2c1-c1c(Cl)cccc1Cl,inactive: -14.2%
17,Cc1coc2cc3oc(=O)c(CC(=O)NCc4ccccc4)c(C)c3cc12,inactive: -16.8%
18,CC(C)(C)c1ccc(S(=O)(=O)Nc2ccc(O)c(Sc3nc4ccccc4s3)c2)cc1,inactive: -36.3%
19,CC(=O)N1CCCc2cc(S(=O)(=O)N3CCCC(C(=O)Nc4ccc(C)c(C)c4)C3)ccc21 (stereo not given),inactive: -19.4%
20,COc1cccc(-c2cnc(NCc3ccccc3Cl)n2C)c1,inactive: 2.42%
21,C[C@]12C=CC(=O)C=C1CC[C@@H]1[C@@H]2[C@@H](O)C[C@@]2(C)[C@H]1CC[C@]2(O)C(=O)CO,inactive: -9.99%
22,Cc1ccc(C(=O)Nc2ccc3oc(-c4cccnc4)nc3c2)c(Cl)c1,"inactive: 1.98% [at 11.5 µM, percent change from vehicle, -100% = no light]"
23,CCOc1ccccc1NC(=O)c1cc(S(=O)(=O)NC2CCCC2)ccc1F,inactive: -32.2%

row,SMILES,"activity change, positive = activation"
1,CCOc1ccc2nc(N3CCC(C(=O)Nc4c(C)cccc4C)CC3)sc2c1,inactive: 19.9%
2,Cc1ccc(C)c(N2CCN(C(=O)c3cc4c(=O)n(Cc5cccs5)ccc4nc3C)CC2)c1,inactive: -30.6%
3,Cc1ccc(S(=O)(=O)Nc2cc3c(cc2Cl)n(C)c(=O)c(=O)n3C)cc1,inactive: -12.8%
4,COc1cc(NC(=O)N2CCN(c3cc(-c4noc(C)n4)ccc3C)CC2)cc(OC)c1OC,inactive: -25.4%
5,Cc1ccc(NC(=O)/C(C#N)=C\c2ccc(Cl)cc2Cl)cc1C,inactive: 0.908%
6,COc1ccc2c(c1)c1c(c(=O)n(CCc3ccccc3)c(=O)n1Cc1ccc(Cl)cc1)n2C,inactive: -10.7%
7,CCOc1ccccc1NC(=O)N1CCN(S(=O)(=O)c2ccc3c(ccn3C)c2)CC1,inactive: -22.4%
8,CCN(c1ccc(C)cc1)S(=O)(=O)c1nnc(NC(=O)c2cccs2)s1,inactive: -33.7%
9,Cc1ccc(-c2ccc(CCC(=O)O)n2-c2ccc(C(C)C)cc2)cc1,inactive: -0.93%
10,Nc1c(-c2nc(-c3ccccc3)no2)nnn1CC(=O)Nc1ccccc1,inactive: 4.15%
11,COc1ccccc1CNC(=O)Cn1ncc2c(C)n(Cc3ccccc3Cl)c(C)c2c1=O,inactive: -12.7%
12,CCN(CC)CCNC(=O)c1cc2c(=O)[nH]c3ccc(C)cc3c2s1,inactive: -11.5%
13,COC(=O)CSc1nnc2n(-c3ccccc3)c(=O)c3c4c(sc3n12)COC(C(C)C)C4 (stereo not given),inactive: -11%
14,CCC(=O)N1CCc2cc(S(=O)(=O)N(C)c3cccc(C)c3)ccc21,inactive: -17%
15,CS(=O)(=O)c1ccc([C@@H](O)[C@@H](CO)NC(=O)C(Cl)Cl)cc1,inactive
16,CCN(c1cc(C)cc(C)c1)S(=O)(=O)c1nnc(NC(=O)c2cccc(F)c2)s1,inactive: -51.5%
17,CCOc1ccccc1N1CC(c2nc3ccccc3n2CCOc2ccc(C(C)(C)C)cc2)CC1=O (stereo not given),inactive: -15.9%
18,COc1c(C)c2c(c(O)c1CC=C(C)CCC(=O)O)C(=O)OC2,inactive: -29.1%
19,CCOc1ccccc1N(C)C(=O)Cn1nc(Cc2cccnc2)c2ccccc2c1=O,inactive: -15.9%
20,CCOC(=O)N1CCC(NC(=O)c2cnn(-c3ccc(C)cc3C)c2C2CCN(C(=O)OC(C)(C)C)CC2)CC1,inactive: 0%
21,CC(=O)Nc1cccc(Nc2nc3ccccc3n3c(C)nnc23)c1,inactive: 26.2%
22,O=C(CN1CCCN(Cc2ccc(F)cc2)S1(=O)=O)Nc1ccc2c(c1)OCCO2,inactive: -4.3%
